Data from the supplement of paper PMC11417369.
± gives the standard deviation of the averaged measurements. Some of the results follow.

system: PfAP2-I AP2 domain 3 (GST-tagged); test: gcPBM binding intensity (ln(normalized median fluorescence intensity)); higher = stronger DNA binding
Summary of the method: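 Binding intensity is the highest Masliner-normalised natural-log median intensity over replicate spots in either probe orientation. To obtain it, GST-tagged P. falciparum DNA-binding domains made in E. coli were incubated for 1 h on an Agilent 4 × 180k array of primer-extended double-stranded 36-bp intergenic genomic probes plus negative controls. Detection used Alexa488 anti-GST antibody with scanning at 488 nm.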

“TAATAGATGTTATGAAGTACTAAATATTAAATATAA [XGTACX_site5717]” and “TTTATTTTAAATGGGTGTACTCATTCCTTATGGAAG [XGTACX_site1397]” are within error of each other in “gcPBM binding intensity (ln)” value: 7.81 ± 0.45 for the first, 7.915 ± 0.078 for the second.

Going from “TATTATAATATATTTGTGCACATAATATCTCCGCTA [GTGCAC_site9799]” to “AGTAGTCTGGAGAAAAGTACATAGTATCTGATAACC [XGTACX_site2028]”, the “gcPBM binding intensity (ln)” value falls from 10.91 ± 0.049 to 7.95 ± 0.63.

“TGCTTATATATAAATTGTACTGAAAGAATAAAATAA [XGTACX_site4025]” and “AAAAAGATAAAATATACATGCATATATAATATACAT [TGCATGCA_site488]” are within error of each other in “gcPBM binding intensity (ln)” value: 7.79 ± 0.5 for the first, 7.49 ± 0.51 for the second.

“AAAAAAAAAAAATACACACACATATTTATTTATATA [CACACA_site7114]” and “AAAAAAGGTAAAAAAAGTACAAAAAAAAAATTAAAA [XGTACX_site6993]” are within error of each other in “gcPBM binding intensity (ln)” value: 7.69 ± 0.2 for the first, 7.78 ± 0.43 for the second.

“CTATATGTTAAATTCTCACACATTATTACAATTTAA [CACACA_site5979]” and “ACGTATTTTTAAATATATGAATTATGTAACTTGTGA [CACACA_negctrl_site1446]” are within error of each other in “gcPBM binding intensity (ln)” value: 7.88 ± 0.49 for the first, 7.6 ± 0.45 for the second.

“GAATATGTGATATTTTGTACATAAAAATAATATATA [XGTACX_site6398]” and “TATACTATTTAAATGTGTACTAAAAGAATATATTAT [XGTACX_site5238]” are within error of each other in “gcPBM binding intensity (ln)” value: 7.65 ± 0.33 for the first, 8.1 ± 0.12 for the second.

First: CATATGTATATGACTACACACAAGGGTGTACCTATA [CACACA_site6670]
Second: TTAAAAATAAATTCATGTACATAATATATATATATA [XGTACX_site7908]
The “gcPBM binding intensity (ln)” value of the first is lower: 7.62 ± 0.4 for the first, 9.1 ± 0.21 for the second.

First: TATATACAACGTTAAGCACACACAAAAAAAATTTAA [CACACA_site9013]
Second: AAAACATAAATACATACACACATAATATAGATTAAT [CACACA_site6205]
The “gcPBM binding intensity (ln)” value of the first is higher: 8.59 ± 0.13 for the first, 7.62 ± 0.59 for the second.

“TTGCATTTATTATACACACACAAAAAAATATTTATA [CACACA_site6252]” and “TGTTCATTTTTAAAATGTACATATATGTTGTTCCAT [XGTACX_site8444]” are within error of each other in “gcPBM binding intensity (ln)” value: 7.96 ± 0.31 for the first, 7.67 ± 0.64 for the second.

“ATTTCTCAATCTTAATGTACAAAAAAAAGGAAAAAG [XGTACX_site1210]” and “AGCATATTATCATATTGTACATATTATAATATATAT [XGTACX_site3907]” are within error of each other in “gcPBM binding intensity (ln)” value: 7.82 ± 0.57 for the first, 7.87 ± 0.38 for the second.

First: ATATGTTTTGTTTACGTGCACTGCTTTGTTTATATA [GTGCAC_site9622]
Second: AGCAAATCAGATAGTAGTACATTTAAATTAGACTTT [XGTACX_site4172]
The “gcPBM binding intensity (ln)” value of the first is higher: 10.8 ± 0.11 for the first, 7.67 ± 0.39 for the second.

“TAAAAATTTTAATAAACACACAATGAGATATTGAAT [CACACA_site5704]” and “CAAAATAAAAATAACACACACATTTATATATATACA [CACACA_site1190]” are the same in “gcPBM binding intensity (ln)” value: 7.58 ± 0.61 for the first, 7.58 ± 0.57 for the second.

“TTTTTAATTATCTTTTCCCATGGTTTCTCCGTTTTT [XGTACX_negctrl_site39]” and “TTTTTAAAACATCACTGTACCCGTTATGGTGAACAT [XGTACX_site3483]” are within error of each other in “gcPBM binding intensity (ln)” value: 7.74 ± 1.1 for the first, 7.84 ± 0.28 for the second.

Compared with “TAAAACATAAGAGACACACACACATATATATATATA [CACACA_site3643]”, “ATATTCTTTTTATGTGGTACTAATTTTTTTTTTTTA [XGTACX_site3791]” is lower in “gcPBM binding intensity (ln)” value: 9.59 ± 0.48 for the first, 7.99 ± 0.4 for the second.

“TTTTTAAATAATTGAAGTACACATTTCTCTAAGTTG [XGTACX_site2846]” and “AGTAAAAGAAAGCACACACACATGTATATAGGTATG [CACACA_site7759]” are within error of each other in “gcPBM binding intensity (ln)” value: 7.62 ± 0.4 for the first, 8.03 ± 0.49 for the second.

“CATGTATTTTATATTACACACTAATATTATAGATAT [CACACA_site6819]” and “TTTTTTTTTTTGTTTAAACACACGAGCTTTCTTCTT [CACACA_site4085]” are within error of each other in “gcPBM binding intensity (ln)” value: 7.8 ± 0.37 for the first, 8.26 ± 1 for the second.

“AAACATATAAACATATGTACATATAAACATATATAC [XGTACX_site5026]” and “ATGTAAATATATATATGTACTAATTAGTAGTTTACG [XGTACX_site6271]” are within error of each other in “gcPBM binding intensity (ln)” value: 7.67 ± 0.41 for the first, 8.29 ± 0.36 for the second.

“TTACATAATTTCTGCTGTACCAATTTTGAGAAGTTG [XGTACX_site4023]” and “AAAAGGAATATAATCATTCAAAAATATAATATATAT [GTGCAC_negctrl_site551]” are within error of each other in “gcPBM binding intensity (ln)” value: 7.86 ± 0.53 for the first, 7.73 ± 0.52 for the second.

Going from “ATCTTAACTCTATGCACACATAAAAGTATATAAATA [CACACA_site2256]” to “TTTTATAAATTATAATTCTATTATCTGTTCTTTTTA [TGCATGCA_negctrl_site487]”, the “gcPBM binding intensity (ln)” value falls from 9.38 ± 0.18 to 7.58 ± 0.63.

“CATACATACATACATACACACATACAGATATATATA [CACACA_site4890]” and “TCCTTATTACTTTTTTAAGTCGTAATGAAAGAAAAA [CACACA_negctrl_site1497]” are within error of each other in “gcPBM binding intensity (ln)” value: 8.88 ± 0.7 for the first, 7.58 ± 0.64 for the second.

“ATCATCCAAGATCTTACACACATATTAAATAAATAA [CACACA_site1473]” and “TTTTATTTTTTTAAATGTACACATATTAATGTAAGG [XGTACX_site319]” are within error of each other in “gcPBM binding intensity (ln)” value: 7.93 ± 0.45 for the first, 7.92 ± 0.3 for the second.

“ATCATGTTATATACATGTACATATATATATATATAA [XGTACX_site609]” and “AACACAGATAAATTAACACACACACCCATATATATA [CACACA_site9310]” are within error of each other in “gcPBM binding intensity (ln)” value: 8 ± 0.42 for the first, 8.48 ± 0.69 for the second.

“CACATATAGTTATATGCACACATCTTACACATCTAT [CACACA_site5937]” was tested, and the “gcPBM binding intensity (ln)” value was 9.49 ± 0.21.
